Source: paper PMC4336329 (PLoS ONE, 2015)
Out of some 310,000 compounds screened, about 14,000 (4.5%) showed an effect of 50% or more. Effects have a minus sign here. The list shows a part of the results.

target: human ether-à-go-go-related gene (hERG) potassium channel (human, UniProt Q12809); assay: primary screen, population patch clamp on CHO cells stably expressing hERG
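Also: peak tail current of the secondary pulse compared with the same well before compound.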

human ether-à-go-go-related gene (hERG) potassium channel, sequence (Q12809 whole entry, looked up): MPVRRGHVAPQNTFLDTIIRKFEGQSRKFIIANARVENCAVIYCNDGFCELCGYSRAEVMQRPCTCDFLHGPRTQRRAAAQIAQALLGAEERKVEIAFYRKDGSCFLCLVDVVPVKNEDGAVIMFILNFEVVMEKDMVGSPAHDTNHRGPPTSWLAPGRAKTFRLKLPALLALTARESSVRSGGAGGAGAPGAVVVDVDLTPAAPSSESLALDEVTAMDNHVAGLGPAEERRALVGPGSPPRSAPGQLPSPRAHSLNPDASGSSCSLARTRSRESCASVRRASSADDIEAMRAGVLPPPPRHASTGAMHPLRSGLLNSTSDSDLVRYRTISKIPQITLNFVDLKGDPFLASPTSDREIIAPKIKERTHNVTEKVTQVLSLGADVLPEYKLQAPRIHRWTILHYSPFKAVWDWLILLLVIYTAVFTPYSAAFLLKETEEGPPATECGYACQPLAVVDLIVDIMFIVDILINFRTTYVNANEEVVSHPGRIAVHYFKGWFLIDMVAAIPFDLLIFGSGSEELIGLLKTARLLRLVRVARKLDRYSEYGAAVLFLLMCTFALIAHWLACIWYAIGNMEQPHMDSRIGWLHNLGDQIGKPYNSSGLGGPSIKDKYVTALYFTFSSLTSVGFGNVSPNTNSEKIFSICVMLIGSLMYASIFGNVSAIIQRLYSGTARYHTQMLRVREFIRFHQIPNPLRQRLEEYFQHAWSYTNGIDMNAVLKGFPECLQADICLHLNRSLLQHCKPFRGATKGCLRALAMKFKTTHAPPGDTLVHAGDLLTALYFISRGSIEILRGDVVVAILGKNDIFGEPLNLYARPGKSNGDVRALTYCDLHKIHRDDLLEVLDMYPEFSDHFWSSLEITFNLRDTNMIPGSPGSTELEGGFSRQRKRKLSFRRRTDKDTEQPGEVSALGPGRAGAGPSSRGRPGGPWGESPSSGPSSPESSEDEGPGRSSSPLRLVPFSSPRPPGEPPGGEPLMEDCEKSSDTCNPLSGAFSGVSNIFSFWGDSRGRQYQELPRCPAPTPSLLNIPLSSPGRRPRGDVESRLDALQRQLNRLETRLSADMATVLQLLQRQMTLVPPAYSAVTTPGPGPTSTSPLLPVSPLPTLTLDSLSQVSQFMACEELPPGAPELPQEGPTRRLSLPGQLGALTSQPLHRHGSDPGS

First: COCCNC(=O)c1ccc(CS(=O)(=O)c2ccccc2)o1
Second: Cc1cc(C(=O)NCCc2ccc(S(N)(=O)=O)cc2)c(C)o1
The “hERG current change (%, negative = inhibition) at 10uM” value of the first is lower: -9.11% for the first, 2.08% for the second.

Compared with `O=C(/C=C/c1cccc(F)c1)NNC(=O)c1ccncc1`, `CC(=O)N(C)c1ccc(NC(=S)NC(=O)/C=C/c2ccco2)cc1` is higher in “hERG current change (%, negative = inhibition) at 10uM” value: -4.8% for the first, 5.11% for the second.

Going from `CCOC(=O)C1=C(N)n2c(s/c(=C\c3ccncc3)c2=O)=C(C(=O)OCC)C1c1ccncc1` (stereo not drawn) to `CCn1c(SCC(=O)Nc2cccc(NC(=O)c3cccs3)c2)nnc1-c1ccncc1`, the “hERG current change (%, negative = inhibition) at 10uM” value falls from 22.8% to -15.1%.

Compared with `Nc1c(C(=O)Nc2ccc3c(c2)OCCO3)nnn1Cc1ccc(Br)cc1`, `O=C(COC(=O)c1cccnc1Cl)NCc1ccc2c(c1)OCO2` is higher in “hERG current change (%, negative = inhibition) at 10uM” value: -4.24% for the first, 11.4% for the second.

First: CCC(C)NC(=O)c1ccc(C2SCC(=O)N2Cc2ccccc2)cc1 (stereo not drawn)
Second: O=CNCCCc1nc2ccccc2n1Cc1ccccc1
The “hERG current change (%, negative = inhibition) at 10uM” value of the first is higher: 2.6% for the first, -28.6% for the second.

First: CN1C(=O)CC(N2CCN(CC(=O)N3CCCC3)CC2)C1=O (stereo not drawn)
Second: CCN1CCN(C(=O)/C=C/c2c(F)cccc2Cl)CC1
The “hERG current change (%, negative = inhibition) at 10uM” value of the first is higher: 0.953% for the first, -11.4% for the second.

Compared with `COc1ccc(C(C)=O)cc1CSc1nnc(SCc2cc(C(C)=O)ccc2OC)s1`, `COc1ccc(-c2ccc(SCC(=O)Nc3nccs3)nn2)cc1OC` is higher in “hERG current change (%, negative = inhibition) at 10uM” value: 13.6% for the first, 27.1% for the second.

Compared with `CC(=O)Nc1ccc(NC(=O)CCn2cnnn2)cc1`, `CCOc1ncccc1C(=O)N(C)CC(=O)Nc1ccc(F)cc1` is lower in “hERG current change (%, negative = inhibition) at 10uM” value: 18.1% for the first, 17.2% for the second.

Going from `COc1cc(CN(C)CC2CCCN(CCc3cccc(C(F)(F)F)c3)C2)ccc1O` (stereo not drawn) to `COc1cccc(OC)c1OCCCN1CCC(Cc2ccccc2)CC1.O=C(O)C(=O)O`, the “hERG current change (%, negative = inhibition) at 10uM” value falls from -62.8% to -80.6%.

First: Cc1nn(Cc2ccc(F)cc2)c(C)c1NC(=O)c1nn(C)cc1Cl
Second: CCOC(=O)Cc1c(C)nc2c(-c3ccc(OC)cc3)c(C)nn2c1C
The “hERG current change (%, negative = inhibition) at 10uM” value of the first is higher: -3.31% for the first, -7% for the second.

Compared with `Cc1nnc(SCc2cc(=O)[nH]c(Nc3nc(C)c4cc(C)c(C)cc4n3)n2)s1`, `Cc1ccc2nc(Nc3nc(-c4ccccc4)cc(=O)[nH]3)nc(C)c2c1` is higher in “hERG current change (%, negative = inhibition) at 10uM” value: 13.7% for the first, 15% for the second.

Going from `CCOC(=O)c1c(NC(=O)CCN2C(=O)c3cccc([N+](=O)[O-])c3C2=O)sc(C(=O)OC(C)C)c1C` to `Cc1cc(=O)oc2ccc(OC(=O)CN3C(=O)c4cccc([N+](=O)[O-])c4C3=O)cc12`, the “hERG current change (%, negative = inhibition) at 10uM” value falls from 13.2% to 4.86%.

First: O=C(O)CCCc1ccc2c(c1)CCc1ccccc1-2
Second: O=C(OCC(=O)N1CCc2ccccc21)c1ccccc1
The “hERG current change (%, negative = inhibition) at 10uM” value of the first is higher: 16.1% for the first, 15.7% for the second.

Compared with `CC1CC(C)CN(c2ncnc3c2cnn3-c2ccc(Cl)cc2)C1` (stereo not drawn), `CCOc1ccc(N2CC(C(=O)Nc3ccccn3)CC2=O)cc1` (stereo not drawn) is lower in “hERG current change (%, negative = inhibition) at 10uM” value: 3.17% for the first, -15.1% for the second.

Compared with `COc1cccc(CN2CC(C(=O)NCCc3ccc(C)o3)CCC2=O)c1` (stereo not drawn), `COc1cccc(-n2nc(C(=O)O)c3ccccc3c2=O)c1` is lower in “hERG current change (%, negative = inhibition) at 10uM” value: 7.18% for the first, 6.72% for the second.

Going from `C=CCN1C(=O)/C(=C/c2cccs2)S/C1=N\S(=O)(=O)c1ccc(F)cc1` to `O=C(CN1C(=O)/C(=C/c2ccccc2)SC1=S)Nc1cccnc1`, the “hERG current change (%, negative = inhibition) at 10uM” value falls from 15.8% to 10.5%.

Going from `Cc1ccc(CNC(=O)CSCC(=O)O)cc1` to `Cc1ccc(CC(=O)Nc2nc3ccccc3s2)cc1`, the “hERG current change (%, negative = inhibition) at 10uM” value falls from 21.6% to -1.16%.

Going from `COc1ccc(/C=C/C(=O)N(c2ccccn2)C2CCCCC2)cc1OC` to `CN(C1CCCCC1)S(=O)(=O)c1ccccc1`, the “hERG current change (%, negative = inhibition) at 10uM” value falls from -6.44% to -7.01%.

Compared with `Cc1cc2c(c(N)n1)c(=O)oc1ccccc12`, `CC(C)(CNC(=O)c1cc2ccccc2o1)N1CCOCC1` is lower in “hERG current change (%, negative = inhibition) at 10uM” value: 13.9% for the first, -4.05% for the second.

Compared with `O=C(Nc1ccc([N+](=O)[O-])cc1)c1ccc(Cn2cc([N+](=O)[O-])cn2)cc1`, `CC(C)(C)Sc1ccc([N+](=O)[O-])cc1C(=O)Nc1ccncc1` is higher in “hERG current change (%, negative = inhibition) at 10uM” value: -31.7% for the first, -22.2% for the second.

First: COc1cc2[nH]c(Cl)c([N+](=O)[O-])c2cc1OC
Second: COc1ccc2c(c1)c(C(=O)O)c(C)n2CCc1ccc(OC)c(OC)c1
The “hERG current change (%, negative = inhibition) at 10uM” value of the first is lower: -4.97% for the first, 16.8% for the second.

Compared with `O=c1cc[nH]c2cc(Cl)ccc12`, `COc1ccc(/C=C/C(=O)c2ccc(Cl)s2)cc1O` is lower in “hERG current change (%, negative = inhibition) at 10uM” value: 4.34% for the first, 1.69% for the second.

Going from `CC1=C(C#N)C(NC(=O)c2ccccc2Cl)(C(F)(F)F)C(=O)N1` (stereo not drawn) to `Cc1ccc(O)c(C2=NNC(O)(C(F)(F)F)C2)c1` (stereo not drawn), the “hERG current change (%, negative = inhibition) at 10uM” value rises from -7.75% to 3.46%.

Going from `CC(C)C1Cc2c(sc3ncnc(NN)c23)CO1` (stereo not drawn) to `N#Cc1c(N)sc2c1CCN(CCc1ccccc1)C2`, the “hERG current change (%, negative = inhibition) at 10uM” value falls from 11.7% to -50.5%.

First: CC(=O)c1cccc(NC(=O)C2=CC(c3cccs3)=NS(=O)(=O)N2C)c1
Second: CC(C)C(OC(=O)c1cccs1)C(=O)NCCc1ccccc1 (stereo not drawn)
The “hERG current change (%, negative = inhibition) at 10uM” value of the first is higher: 10.9% for the first, 1.64% for the second.

First: COc1ccc(NC(=O)CS(=O)c2ccccc2Cl)cc1 (stereo not drawn)
Second: COc1ccc(NC(=O)NCCCN2CCN(c3ccccc3F)CC2)cc1
The “hERG current change (%, negative = inhibition) at 10uM” value of the first is higher: 18% for the first, -63.6% for the second.

Compared with `CC(C)c1ccccc1NC(=O)c1ccco1`, `Cc1c(Cl)cccc1NC(=S)N/N=C/c1ccccc1Cl` is higher in “hERG current change (%, negative = inhibition) at 10uM” value: -13.2% for the first, 12.2% for the second.

Going from `COc1ccc(NC(=O)C2CCCN(S(C)(=O)=O)C2)cc1OC` (stereo not drawn) to `CC1CCN(S(=O)(=O)c2ccc(C(=O)Nc3nnc(-c4ccco4)o3)cc2)CC1`, the “hERG current change (%, negative = inhibition) at 10uM” value falls from 8.63% to -12.4%.

Going from `CCCn1cc(S(=O)(=O)c2ccccc2)c(=O)c2cc(OCC)ccc21` to `CCN(CC)C(=O)CSc1nnc(-c2ccccc2)c(-c2ccccc2)n1`, the “hERG current change (%, negative = inhibition) at 10uM” value rises from -33.6% to -20.4%.

Going from `CCOC(=O)C(CCSC)Nc1nc(Cl)nc(Nc2ccc(Cl)cc2)n1` (stereo not drawn) to `COc1ccc(-c2noc(CCCOc3ccc(Cl)cc3Cl)n2)cc1`, the “hERG current change (%, negative = inhibition) at 10uM” value rises from 10.7% to 12.9%.

Going from `CC1(C)CC(NC(=O)c2ccc(Br)o2)CC(C)(C)N1` to `Cc1cc(C)cc(OCc2ccc(C(=O)NC3CCOC3=O)o2)c1` (stereo not drawn), the “hERG current change (%, negative = inhibition) at 10uM” value rises from 14.7% to 15.9%.

Compared with `CC(C)(C)C(=O)/C(=C\c1ccc([N+](=O)[O-])cc1)n1cncn1`, `CC(C)(C)c1ccc(Cn2nnc3c(=O)[nH]c(C4CCN(C(=O)Cc5cccs5)CC4)nc32)cc1` is higher in “hERG current change (%, negative = inhibition) at 10uM” value: -49.6% for the first, -4.81% for the second.

Going from `O=C(COc1ccc(Br)cc1)NNC(=S)NC(=O)c1ccccc1[N+](=O)[O-]` to `O=C(CN1CCN(c2ccccn2)CC1)Nc1ccc(Br)cc1`, the “hERG current change (%, negative = inhibition) at 10uM” value falls from 7.77% to -57.7%.

Going from `CC(NC(=O)C(C)N1CCN(S(=O)(=O)c2ccccc2)CC1)c1ccccc1` (stereo not drawn) to `O=C(CSc1ncccn1)N1CCN(C(c2ccccc2)c2ccccc2)CC1`, the “hERG current change (%, negative = inhibition) at 10uM” value falls from -7.84% to -18.4%.

First: Cc1ccc(-c2nc(C#N)c(NCCc3ccccn3)o2)cc1
Second: Fc1cccc(CSc2ccc3nnc(-c4cccnc4)n3n2)c1
The “hERG current change (%, negative = inhibition) at 10uM” value of the first is higher: -0.257% for the first, -69% for the second.

Compared with `O=C(CCCCn1c(=O)[nH]c2ccsc2c1=O)NCCc1ccccc1`, `O=C(O)[C@H](Cc1ccccc1)NC(=O)N1CCN(c2ccccc2)CC1` is lower in “hERG current change (%, negative = inhibition) at 10uM” value: 0.118% for the first, -0.139% for the second.

First: O=C1CSC(=S)N1c1cccc(Br)c1
Second: CC1CSc2nnc(CCc3ccccc3)n21 (stereo not drawn)
The “hERG current change (%, negative = inhibition) at 10uM” value of the first is higher: 8.66% for the first, 8.26% for the second.

Compared with `Nc1c(C(=O)N/N=C/c2cccnc2)oc2nc(-c3ccco3)cc(-c3ccco3)c12`, `Cc1cc(C)c2nc(-c3ccccn3)cc(C(=O)NCc3cc(C)n(C)n3)c2c1` is lower in “hERG current change (%, negative = inhibition) at 10uM” value: -1.33% for the first, -28.9% for the second.

First: COc1ccc(OCc2nnc(SCC(=O)Nc3nnc(C4CC4)s3)n2C)cc1
Second: CCN(CC)C(=O)CSc1nc2ccccc2c(=O)n1OC(C)C
The “hERG current change (%, negative = inhibition) at 10uM” value of the first is higher: 16.3% for the first, -11.3% for the second.

First: Cc1sc2c(c1C)c(=O)nc1scc(CC(=O)O)n12
Second: Cc1noc(C)c1CSc1nnc(C)c(=O)[nH]1
The “hERG current change (%, negative = inhibition) at 10uM” value of the first is higher: 7.48% for the first, 7.14% for the second.

Compared with `Fc1ccc(CN2CCCCCCC2)cc1F`, `Cc1cc(C(F)(F)F)nn1CC(=O)N1CCCCC1C` (stereo not drawn) is higher in “hERG current change (%, negative = inhibition) at 10uM” value: -24% for the first, 2.16% for the second.

Going from `CCN1C(=O)[C@H]2[C@@H](c3ccc(-c4ccc(F)cc4)cc3)N[C@@](Cc3ccccc3)(C(=O)OC)[C@H]2C1=O.O=C(O)C(F)(F)F` to `CCOC(=O)C1=C(CC)Nc2ccccc2N=C1NC(=O)c1cc(S(=O)(=O)N(C)C)ccc1Cl`, the “hERG current change (%, negative = inhibition) at 10uM” value rises from -2.53% to 19.1%.

Compared with `CCn1c(-c2cccnc2)n[nH]c1=S`, `Cc1c(Br)c(C(F)(F)F)nn1CC(=O)NCc1ccco1` is higher in “hERG current change (%, negative = inhibition) at 10uM” value: 0.542% for the first, 16.3% for the second.

Compared with `CCc1cccc(NS(=O)(=O)c2ccc3c(c2)N(C)CCO3)c1`, `CN(C)C(=O)CN(c1ccc2c(c1)OCO2)S(C)(=O)=O` is higher in “hERG current change (%, negative = inhibition) at 10uM” value: -9.79% for the first, 15.5% for the second.

First: CC(C)NC(=O)COC(=O)c1ccc(Cl)c(S(N)(=O)=O)c1
Second: CC1CN(Cc2nc3c(c(=O)n(C)c(=O)n3C)n2CCCO)CC(C)O1 (stereo not drawn)
The “hERG current change (%, negative = inhibition) at 10uM” value of the first is higher: 18.6% for the first, 2.33% for the second.
